Source: the supplement of paper PMC7125110
± gives the standard error. Variants at the background level are over-represented here.

B1: glmS ribozyme (parent)
chain: AUAAAAGCGCCAGAACUACAGAAAUGUAGUUGACGAGGAGGAGGUUUAUCGAAUUUUCGGCGGAUGCCUCCAAA

Columns and labels:
Conditions in all cases: with glucosamine-6-phosphate
glucosamine-6-phosphate [1] = variants of: B1; assay: self-cleavage kobs at 640 uM GlcN6P; higher = faster cleavage; RNA array
In short: (§1)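 kobs was derived by fitting per-tile medians to one- or two-exponential decays after normalising signals to baseline and to non-cleaving reference variants. Those signals came from barcoded ribozyme variants transcribed in situ by E. coli RNA polymerase on sequenced MiSeq chips, followed through a hybridised Cy3 probe at 37 °C and imaged over ~14 h. Glucosamine-6-phosphate (40 μM to 10 mM) in HEPES/KCl/Mg(OAc)2 buffer was flowed in. Weighted Michaelis–Menten fits across concentrations then gave kcat and KM.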

glucosamine-6-phosphate [2] = variants of: B1; assay: self-cleavage kobs at 160 uM GlcN6P; higher = faster cleavage; RNA array
In short: as §1

glucosamine-6-phosphate [3] = variants of: B1; assay: self-cleavage kobs at 2500 uM GlcN6P; higher = faster cleavage; RNA array
In short: as §1

glucosamine-6-phosphate [4] = variants of: B1; assay: self-cleavage kobs at 10000 uM GlcN6P; higher = faster cleavage; RNA array
In short: as §1

Row | Variant | self-cleavage kobs at 640 uM GlcN6P (glucosamine-6-phosphate [1]) [s⁻¹] | self-cleavage kobs at 160 uM GlcN6P (glucosamine-6-phosphate [2]) [s⁻¹] | self-cleavage kobs at 2500 uM GlcN6P (glucosamine-6-phosphate [3]) [s⁻¹] | self-cleavage kobs at 10000 uM GlcN6P (glucosamine-6-phosphate [4]) [s⁻¹]
1 | C8G G32A G40U | < 1e-05 | < 1e-05 | – | –
2 | C8G U31C A36C U55G | < 1e-05 | – | – | –
3 | C8U U54G G66C | < 1e-05 | – | – | –
4 | C8G G40U G51C U65C G66A | < 1e-05 | – | < 1e-05 | –
5 | C8U C58A | < 1e-05 | < 1e-05 | < 1e-05 | –
6 | C8G G32C C67A | < 1e-05 | < 1e-05 | < 1e-05 | –
7 | C8G A33C A48G | < 1e-05 | – | < 1e-05 | –
8 | C8G C50U A52U U54G G63U C70U | < 1e-05 | – | – | –
9 | C8G G32U U47G C67G C68G | 0.000105 ± 3.3e-05 | – | – | –
10 | C8G G38U | < 1e-05 | < 1e-05 | < 1e-05 | –
11 | C8G U46A C68G | < 1e-05 | – | – | < 1e-05
12 | C8U G29U C70G | < 1e-05 | – | – | –
13 | C8G A14C G32C G41A G62U | < 1e-05 | – | < 1e-05 | –
14 | C8U A64G C67G | < 1e-05 | – | – | –
15 | C8U G29A G43C A53G | < 1e-05 | – | < 1e-05 | –
16 | C8G G59A | < 1e-05 | < 1e-05 | < 1e-05 | –
17 | C8U G60U | < 1e-05 | < 1e-05 | < 1e-05 | –
18 | G9A A39U U45A U57G | < 1e-05 | – | – | –
19 | C8U G41C U45G | < 1e-05 | – | < 1e-05 | < 1e-05
20 | G9A A15G G38U | < 1e-05 | < 1e-05 | < 1e-05 | –

Row | Variant | self-cleavage kobs at 640 uM GlcN6P (glucosamine-6-phosphate [1]) [s⁻¹] | self-cleavage kobs at 160 uM GlcN6P (glucosamine-6-phosphate [2]) [s⁻¹] | self-cleavage kobs at 2500 uM GlcN6P (glucosamine-6-phosphate [3]) [s⁻¹] | self-cleavage kobs at 10000 uM GlcN6P (glucosamine-6-phosphate [4]) [s⁻¹]
21 | C8G A12G G43C U57G A64U | < 1e-05 | – | < 1e-05 | –
22 | C8U G13U G29C G32C C61A C67G | < 1e-05 | – | – | –
23 | C8G U45G G51C | < 1e-05 | < 1e-05 | < 1e-05 | –
24 | C8U A15C G35C C68U | < 1e-05 | – | – | –
25 | C8U G13U U47C G51C | < 1e-05 | – | – | –
26 | C8U C10U A14U G43A | < 1e-05 | – | < 1e-05 | –
27 | G9A C10G A36C G38A G60U C70G | < 1e-05 | – | – | –
28 | C8G A14G A15U G41C U47G U56A | < 1e-05 | < 1e-05 | < 1e-05 | –
29 | C8G U47C U69G C70U | < 1e-05 | – | – | –
30 | C8G G9C | < 1e-05 | – | < 1e-05 | –
31 | C8A G35A G51A C58G A64C | < 1e-05 | < 1e-05 | < 1e-05 | –
32 | C8G G35U G66A | < 1e-05 | < 1e-05 | – | –
33 | G9A A12G G35A U47A A53U | < 1e-05 | – | < 1e-05 | –
34 | C8G A14U U49G A53U C61U | < 1e-05 | – | – | –
35 | C8U G13A G37C G44C U49C C50A | < 1e-05 | – | < 1e-05 | –
36 | C8U A48U | < 1e-05 | < 1e-05 | < 1e-05 | < 1e-05
37 | C8U A33U C61G C71A | < 1e-05 | – | – | –
38 | C8U U49G | < 1e-05 | – | < 1e-05 | < 1e-05
39 | C8G C11A C16U U55C G59U | < 1e-05 | – | < 1e-05 | –
40 | C8G C10U C11U C16G G41C C68U | < 1e-05 | < 1e-05 | < 1e-05 | –

Row | Variant | self-cleavage kobs at 640 uM GlcN6P (glucosamine-6-phosphate [1]) [s⁻¹] | self-cleavage kobs at 160 uM GlcN6P (glucosamine-6-phosphate [2]) [s⁻¹] | self-cleavage kobs at 2500 uM GlcN6P (glucosamine-6-phosphate [3]) [s⁻¹] | self-cleavage kobs at 10000 uM GlcN6P (glucosamine-6-phosphate [4]) [s⁻¹]
41 | C8G C11A C71U | < 1e-05 | – | – | –
42 | C8U U45C A48U G59A | < 1e-05 | – | < 1e-05 | –
43 | C8G G9C A39C | < 1e-05 | – | < 1e-05 | –
44 | C8G A42G U55C U69G | < 1e-05 | – | < 1e-05 | –
45 | G9A A12U C58G | < 1e-05 | – | – | –
46 | C8A G13C C16G A33U | < 1e-05 | – | – | –
47 | C8G C11G G37C | < 1e-05 | – | < 1e-05 | –
48 | C8A G41U G60U C61U | < 1e-05 | – | – | –
49 | C8G A15G G60A | < 1e-05 | < 1e-05 | – | –
50 | C8G A14U G59C C67U | < 1e-05 | – | – | < 1e-05
51 | C8G A14G A33U A53G | < 1e-05 | – | – | –
52 | C8A G29C G38U G66C | < 1e-05 | – | < 1e-05 | –
53 | C8U C34A C71U | < 1e-05 | < 1e-05 | < 1e-05 | < 1e-05
54 | C8U C71A | < 1e-05 | < 1e-05 | < 1e-05 | < 1e-05
55 | C8U A33C G40C G62A C70U | < 1e-05 | – | – | –
56 | C8U U46G C61A C68U | < 1e-05 | – | – | –
57 | G9A C16A A52C | < 1e-05 | < 1e-05 | < 1e-05 | –
58 | C8U C10G C50U | < 1e-05 | – | < 1e-05 | –
